# Source: PMC6919601, “Identification of Plasmodium dipeptidyl aminopeptidase allosteric inhibitors by high throughput screening” (PLoS ONE, 2019)
# “And” between values parts separate entries of the source, which are not always exact repeats. Equal values may be shown once. The campaign covered roughly 110,000 compounds. About 230 (0.21%) showed an effect of 50% or more. The list shows a part of the results.
# Molecular target: DPAP1 (Plasmodium falciparum, UniProt Q8IIJ9)
# Assay: primary screen, percent inhibition; read by cleavage of a fluorogenic dipeptide substrate; higher = more effect of the substance
# Parameters: species or system P. falciparum D10 trophozoite lysates; single well
# 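Also: 30 min substrate incubation versus DMSO and 10 µM JCP410 controls.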
# Sequence of DPAP1 (Q8IIJ9 whole entry, looked up): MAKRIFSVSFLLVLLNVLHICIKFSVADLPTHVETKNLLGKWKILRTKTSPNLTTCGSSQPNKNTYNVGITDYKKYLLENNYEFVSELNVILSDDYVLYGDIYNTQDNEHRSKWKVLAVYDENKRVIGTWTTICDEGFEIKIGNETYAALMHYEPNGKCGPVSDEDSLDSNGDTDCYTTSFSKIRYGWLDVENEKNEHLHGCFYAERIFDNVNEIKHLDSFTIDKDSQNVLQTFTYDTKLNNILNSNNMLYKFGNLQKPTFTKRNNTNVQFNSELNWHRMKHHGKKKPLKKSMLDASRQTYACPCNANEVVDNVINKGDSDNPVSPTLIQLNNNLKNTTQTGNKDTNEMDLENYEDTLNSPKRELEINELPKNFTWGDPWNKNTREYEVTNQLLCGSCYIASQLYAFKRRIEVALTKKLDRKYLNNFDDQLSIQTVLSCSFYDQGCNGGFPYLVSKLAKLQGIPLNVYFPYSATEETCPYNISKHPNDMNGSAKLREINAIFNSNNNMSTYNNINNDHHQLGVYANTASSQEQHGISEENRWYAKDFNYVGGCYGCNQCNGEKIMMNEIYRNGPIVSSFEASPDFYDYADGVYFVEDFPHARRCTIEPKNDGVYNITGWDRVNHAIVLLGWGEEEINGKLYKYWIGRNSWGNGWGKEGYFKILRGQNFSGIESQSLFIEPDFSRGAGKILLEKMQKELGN
row,SMILES,% Inhibition @ 10 uM
1,CCN(CC)c1nc(C)nc2sc(C(=O)N3CCCCCC3)c(C)c12,-7.66%
2,CCc1nn(CC(=O)NCc2cccc(Cl)c2)c(=O)c2cccn12,-0.542%
3,COc1ccc(C(=O)c2oc3ccccc3c2NC(=O)c2ccco2)cc1,0.487%
4,CCOC(=O)c1c(C)n(-c2ccccc2)c2ccc(NS(=O)(=O)c3ccccc3)cc12,1.8%
5,COc1cccc(-c2cc(C(=O)O)c3c(-c4ccc(F)cc4)[nH]nc3n2)c1O,1.02%
6,Cc1nc2nncn2c(NCCc2ccccc2)c1C,-8.25%
7,Cc1cccc(C(=O)NCCCn2ccnc2)c1,-1.81%
8,CCN(CC)CCn1c(/C=C/c2ccc(Cl)cc2)nc2cc3ccccc3cc2c1=O,-0.736%
9,Cc1nc2c(c(C)c1CCC(=O)NC(C)c1ccccc1)c(=O)n(C)c(=O)n2C (stereo not drawn),3.75%
10,COc1ccccc1-c1nnc(SCC(=O)N2CC(C)CC(C)C2)o1 (stereo not drawn),0.166%
11,CC(C(=O)NCCc1cccc2ccccc12)N1C(=O)c2ccccc2C1=O (stereo not drawn),14.1%
12,Cc1ccccc1Cn1c(=O)c2c(nc3n2CCN3Cc2ccco2)n(C)c1=O,-1.69%
13,C=CCN1C(=O)N/C(=C/c2ccc(N3CCOCC3)cc2)C1=O,4.11%
14,CC1(C)CC(=O)C(/C=N/c2ncccc2C(=O)O)=C(O)C1,-0.99% and -1.81%
15,CCC1(CC)C(=O)N=C(NCc2ccc(OC)cc2)N(C)C1=O,6.48%
16,CC(NC(=O)Cn1c2ccccc2c2cnnc(O)c21)c1ccccc1 (stereo not drawn),1.38%
17,CCCCN(C)C(=O)c1ccc(CS(=O)(=O)Cc2cccc(C)c2)o1,-1.79%
18,N#Cc1c(N)c(C(=O)c2ccccc2)n2c1CCCC2,2.01%
19,COc1cc(C2Nc3ccccc3C(=O)N2Cc2ccco2)cc(OC)c1OC (stereo not drawn),-8.6%
20,OC(C#CC(O)(c1ccccc1)c1ccccc1)c1ccccc1F (stereo not drawn),-1.86%
21,CCOC(=O)c1sc2nc3c(cc2c1N)CCCC3,0.847%
22,COC(=O)c1c(NC(=O)c2ccc(F)cc2)sc(Cc2ccccc2)c1C,2.03%
23,CC(CC(NC(=O)OCc1ccccc1)C(=O)NCC#N)c1cccc2ccccc12 (stereo not drawn),1.35%
24,CC1(C)CC2CC(C)(CN2Cc2cccnc2)C1 (stereo not drawn),0.273%
25,CCN(CC)c1ccc(/C=C2/C(=O)N(c3ccccc3)C(=S)N(c3ccccc3OC)C2=O)cc1,1.13%
26,CCOC(=O)/C(C#N)=C\c1ccccn1,4.57%

row,SMILES,% Inhibition @ 10 uM
1,O=C(/N=c1\scc(-c2ccc(Br)cc2)n1CCO)c1ccccc1,5.73%
2,CCc1ccc(Oc2nc3ccccn3c(=O)c2/C=C(\C#N)C(=O)NCC2CCCO2)cc1 (stereo not drawn),-1.86%
3,CCC(=O)N1CCN(c2cc(N3CCCC3)c(F)cc2[N+](=O)[O-])CC1,4.26%
4,N#CC1=C(N)SC(N)=C(C#N)C1c1ccco1,51.4%
5,COc1cccc(S(=O)(=O)Nc2ccc(C(=O)N3CC(C)CC(C)C3)cc2)c1 (stereo not drawn),-6.65%
6,Cn1c2ccccc2c2cnn(CC(=O)NCc3ccccc3Cl)c(=O)c21,-5.49%
7,CCCN(Cc1ccc([N+](=O)[O-])s1)CC1CC1,-5.42%
8,CN1C(=O)C2(C(C#N)=C(N)N(c3cc(Cl)cc(Cl)c3)C3=C2C(=O)CC(C)(C)C3)c2ccccc21 (stereo not drawn),-1.06%
9,COc1ccc(-c2noc(N3CCN(C4CCCCC4)CC3)n2)cc1,5.09%
10,CC1CCCCN1S(=O)(=O)c1ccc(-n2cnnn2)cc1 (stereo not drawn),6.92%
11,Cc1ccc(NC(=O)CN2C(=O)S/C(=C\c3c(C)[nH]c4ccccc34)C2=O)cc1,-1.92%
12,CCc1cc(O)nc(N2CCCCC2)n1,4.07%
13,Cn1c(=O)c2c(nc(Cl)n2CC(=O)NCc2ccccc2)n(C)c1=O,1.01%
14,COCCNS(=O)(=O)c1ccc(-c2ccc(O)nn2)o1,6.34%
15,CCOC(=O)c1sc(NC(=O)COc2ccccc2C(C)(C)C)nc1C,-3.21%
16,Cc1ccc2nc(C(=O)O)cc(C(=O)O)c2c1,6.31%
17,CC(C)C[C@H](NC(=O)c1ccc(Br)s1)C(=O)NCC#N,-4.72%
18,CC(C)(C)NC(=O)C1CC(c2ccccc2F)=NO1 (stereo not drawn),-0.644%
19,Cn1cc(Br)c(C(=O)Nc2ccc(C3CCCCC3)cc2)n1,-0.216%
20,Cc1ccnc(NC(=O)c2ccc(COc3ccc(Cl)cc3)o2)c1,0.512%
21,Oc1nc2ccc(Br)cc2c(F)c1-c1ccccc1,0.895%
22,Oc1c2c(nc3c(-c4ccc(Cl)cc4)c(Cc4ccccc4)nn13)CCC2,13.3%
23,O=C(O)CN1C(=O)C2C3CC(C2C1=O)C1C(c2cccs2)c2sc(O)nc2SC31 (stereo not drawn),-1.74%
24,CCC1=C(c2ccc(C)cc2)S(=O)(=O)N=C1N1CCC(C(=O)NCCCN2CCCCC2)CC1,-2.11%
25,O=C(Cc1ccccc1)Nc1ccc2oc(-c3ccc(F)cc3)nc2c1,-1.79%
26,CCOC(=O)c1c(CC(C)C)csc1/N=C/C1C(=O)c2ccccc2C1=O,-5.01%

row,SMILES,% Inhibition @ 10 uM
1,Cc1cccc(C(=O)NC(C)c2ccccc2)c1 (stereo not drawn),0.467%
2,C=CCN(CC=C)C(=O)COc1ccc(Cl)cc1Cl,2.42%
3,Cc1ccc(S(=O)(=O)N(CC(=O)N2CCN(c3ccccc3)CC2)Cc2ccccc2)cc1,-4.13%
4,Cc1cccc(COC(=O)N[C@@H](CC(C)C)C(=O)NCC#N)c1,-3.04%
5,O=C(O)/C=C\C(=O)Nc1cccc(Cl)c1Cl,-3.72%
6,COc1ccc(Nc2ncnc3c2oc2ccccc23)cc1,4.12%
7,Fc1ccc(N2CCN(Cc3ccco3)CC2)cc1,7.55%
8,CCn1c(SCC(=O)Nc2cc(C)on2)nc2c(c1=O)SCC2,2.54%
9,Cc1oc(-c2ccc(C(=O)NCCC(C)C)cc2)nc1CS(=O)c1ccccc1 (stereo not drawn),-5.92%
10,OCC1CCCCN1CCc1ccccc1 (stereo not drawn),-2.95%
11,CC(=O)Nc1ccc(NC(=O)c2cc([N+](=O)[O-])ccc2Cl)cc1,3.1%
12,CC(C)Oc1ccc(CNC(=O)Cn2sc3ccccc3c2=O)cc1,-0.856%
13,COCCn1c(=N)c(C#N)cc2c(=O)n3cc(C)ccc3nc21,-1.47%
14,CCCC1=NN(c2nc3ccccc3s2)C(=O)/C1=C/N(C)C,1.01%
15,CCSc1nnc(NC(=O)c2cnc(SC)nc2C)s1,-4.08%
16,CCOc1ccc2nc(NC(=O)c3ccccc3C)sc2c1,-3.45%
17,COc1ccc(CN2CCN(Cc3ccc(SC)cc3)CC2)c(OC)c1,-2.87%
18,CC(C)CC(C(=O)NCCCOC(C)C)N1Cc2ccccc2C1=O (stereo not drawn),6.98%
19,O=C1CN(c2ccc(Br)cc2)C(=O)N1,-6.08%
20,COCc1nnc(NC(=O)c2c(-c3ccccc3)noc2C)s1,1.91%
21,COc1ccc(Br)cc1/C=C/C(=O)O,14.4%
22,CCN(CCN(C)C)Cc1ccccc1Br,1.08%
23,Cc1cc(C)c(C#N)c(SCC(=O)c2ccc3c(c2)OCO3)n1,0.343%
24,COc1ccc2c(Cl)c(C(=O)N3CCCCC3)sc2c1,7.42%
25,CCN(CCN(C)C)Cc1ccc(F)c(Br)c1,-0.292%
26,O=C1N=C(N2CCN(Cc3ccccc3)CC2)S/C1=C\c1ccccc1O,11.1%

row,SMILES,% Inhibition @ 10 uM
1,CCNC(=S)N1CCn2cccc2C1c1ccc(OC)cc1 (stereo not drawn),4.35%
2,CCOC(=O)C1CCN(Cc2cc(Br)cs2)CC1,3.25%
3,CC(CNS(=O)(=O)c1ccc(-n2cccn2)cc1)c1ccccc1 (stereo not drawn),1.09%
4,CC1CCN(c2c(C#N)c(Cl)nc3ccccc23)CC1,-1.28%
5,Cc1nn(CC(=O)NCC23CC4CC(CC(C4)C2)C3)c(C)c1Cl,1.76%
6,O=S(=O)(NCc1ccccn1)c1ccc(-c2ccc(O)nn2)s1,-6.53%
7,COc1ccc(-c2nc(=O)c3ccccc3o2)cc1,-8.04%
8,CCOC(=O)c1cc(-c2ccc(F)cc2)n(CC(=O)NC(C)(C)C)c1C,-3.64%
9,CC(C)C[C@H](NC(=O)N1CCN(c2ccc(C(F)(F)F)cc2[N+](=O)[O-])CC1)C(=O)NCC#N,-1.82%
10,Cc1nc2c(C(=O)NCCc3ccccc3)cnn2c(O)c1Cl,1.27%
11,CCOCCCNC(=O)Cc1ccc(Cl)cc1,3.48%
12,CC(C)CN(CC(C)C)S(=O)(=O)c1csc(C(N)=O)c1,1.13%
13,Cc1c(NC(=O)CCN2C(=O)/C(=C\c3ccc(Cl)cc3)SC2=S)c(=O)n(-c2ccccc2)n1C,-2.15%
14,Cn1cnc2c3cccnc3ccc21,1.72%
15,COc1ccc(/C=C2/SC(=O)N(C(C)C)C2=O)cc1Br,0.161%
16,COc1cccc(CNC(=O)C(C)n2sc3ccccc3c2=O)c1OC (stereo not drawn),-6.82%
17,COc1ccc(S(=O)(=O)NCCc2nnc3ccc(SCc4ccccc4Cl)nn23)cc1,-1.11%
18,COc1ccc(C(=O)N/C(=C\c2ccco2)C(=O)NCCN2CCOCC2)cc1,-0.178%
19,O=C(O)CCCCCNS(=O)(=O)c1ccc(Cl)c(C(F)(F)F)c1,-8.38%
20,Cc1ccc(Cl)cc1-n1nnc(-c2nc(-c3ccccc3)no2)c1N,-1.59%
21,CC(CCc1ccccc1)NC(=O)C1COc2ccccc2O1 (stereo not drawn),5.03%
22,COc1ccc(N2CCN(C3CC(=O)N(c4ccc(F)cc4)C3=O)CC2)cc1 (stereo not drawn),-4.91%
23,N#C/C(=C\C1=Cc2ccccc2OC1)C(=O)NC1CCCCC1,3.72%
24,O=C(O)c1cccc(N2C(=O)c3ccc(Oc4cccc([N+](=O)[O-])c4)cc3C2=O)c1,1.9%
